Some of the results follow.
Experiments:
Assay in all cases: glycan array binding signal (z-score within array); higher = stronger binding
Conditions in all cases: glycan notation: IUPAC condensed, linker removed; mutation: K348A
[1] = target: Neu5Ac(a2-3)Gal(b1-3)[Fuc(a1-4)]GlcNAc
Procedure, shortened: (§1)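 The binding signal is a Z-score computed within each array and averaged over linkers. Arrays of the same protein sequence at different concentrations or buffers were also averaged together. Data originate from 3228 arrays in the Consortium for Functional Glycomics database, kept only where the protein sequence was available.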

[2] = target: Neu5Ac(a2-3)Gal(b1-3)[Fuc(a1-4)]GlcNAc(b1-3)Gal(b1-4)[Fuc(a1-3)]GlcNAc
Procedure, shortened: as §1

[3] = target: Neu5Ac(a2-3)Gal(b1-3)[Neu5Ac(a2-3)Gal(b1-4)]GlcNAc
Procedure, shortened: as §1

[4] = target: Neu5Ac(a2-3)Gal(b1-3)[Neu5Ac(a2-6)]GalNAc
Procedure, shortened: as §1

Neu5Ac(a2-3)Gal(b1-4)Glc = target: Neu5Ac(a2-3)Gal(b1-4)Glc
Procedure, shortened: as §1

[5] = target: Neu5Ac(a2-3)Gal(b1-4)GlcNAc
Procedure, shortened: as §1

[6] = target: Neu5Ac(a2-3)Gal(b1-4)GlcNAc(b1-2)Man(a1-3)[GlcNAc(b1-2)Man(b1-4)GlcNAc(b1-2)Man(a1-6)]Man(b1-4)GlcNAc(b1-4)GlcNAc
Procedure, shortened: as §1

[7] = target: Neu5Ac(a2-3)Gal(b1-4)GlcNAc(b1-2)Man(a1-3)[Neu5Ac(a2-6)Gal(b1-4)GlcNAc(b1-2)Man(a1-6)]Man(b1-4)GlcNAc(b1-4)GlcNAc
Procedure, shortened: as §1

[8] = target: Neu5Ac(a2-3)Gal(b1-4)GlcNAc(b1-3)Gal(b1-3)GlcNAc
Procedure, shortened: as §1

[9] = target: Neu5Ac(a2-3)Gal(b1-4)GlcNAc(b1-3)Gal(b1-4)GlcNAc
Procedure, shortened: as §1

[10] = target: Neu5Ac(a2-3)Gal(b1-4)GlcNAc(b1-3)Gal(b1-4)GlcNAc(b1-3)Gal(b1-4)GlcNAc
Procedure, shortened: as §1

[11] = target: Neu5Ac(a2-3)Gal(b1-4)GlcNAc(b1-3)Gal(b1-4)[Fuc(a1-3)]GlcNAc
Procedure, shortened: as §1

[12] = target: Neu5Ac(a2-3)Gal(b1-4)GlcNAc(b1-6)[Gal(b1-3)]GalNAc
Procedure, shortened: as §1

[13] = target: Neu5Ac(a2-3)Gal(b1-4)GlcNAc(b1-6)[Neu5Ac(a2-3)Gal(b1-3)]GalNAc
Procedure, shortened: as §1

[14] = target: Neu5Ac(a2-3)Gal(b1-4)GlcNAc6S
Procedure, shortened: as §1

[15] = target: Neu5Ac(a2-3)Gal(b1-4)[Fuc(a1-3)]GlcNAc
Procedure, shortened: as §1

[16] = target: Neu5Ac(a2-3)Gal(b1-4)[Fuc(a1-3)]GlcNAc(b1-3)Gal
Procedure, shortened: as §1

[17] = target: Neu5Ac(a2-3)Gal(b1-4)[Fuc(a1-3)]GlcNAc(b1-3)Gal(b1-4)GlcNAc
Procedure, shortened: as §1

[18] = target: Neu5Ac(a2-3)Gal(b1-4)[Fuc(a1-3)]GlcNAc(b1-3)Gal(b1-4)[Fuc(a1-3)]GlcNAc(b1-3)Gal(b1-4)[Fuc(a1-3)]GlcNAc
Procedure, shortened: as §1

[19] = target: Neu5Ac(a2-3)Gal(b1-4)[Fuc(a1-3)]GlcNAc(b1-6)[Gal(b1-3)]GalNAc
Procedure, shortened: as §1

[20] = target: Neu5Ac(a2-3)Gal(b1-4)[Fuc(a1-3)]GlcNAc6S
Procedure, shortened: as §1

[21] = target: Neu5Ac(a2-3)Gal6S(b1-4)GlcNAc
Procedure, shortened: as §1

[22] = target: Neu5Ac(a2-3)Gal6S(b1-4)[Fuc(a1-3)]GlcNAc
Procedure, shortened: as §1

Neu5Ac(a2-3)GalNAc = target: Neu5Ac(a2-3)GalNAc
Procedure, shortened: as §1

[23] = target: Neu5Ac(a2-3)GalNAc(b1-4)GlcNAc
Procedure, shortened: as §1

[24] = target: Neu5Ac(a2-3)[GalNAc(b1-4)]Gal(b1-4)Glc
Procedure, shortened: as §1

[25] = target: Neu5Ac(a2-3)[GalNAc(b1-4)]Gal(b1-4)GlcNAc
Procedure, shortened: as §1

[26] = target: Neu5Ac(a2-3)[Neu5Ac(a2-6)]GalNAc
Procedure, shortened: as §1

Neu5Ac(a2-6)Gal = target: Neu5Ac(a2-6)Gal
Procedure, shortened: as §1

Neu5Ac(a2-6)Gal(b1-4)Glc = target: Neu5Ac(a2-6)Gal(b1-4)Glc
Procedure, shortened: as §1

[27] = target: Neu5Ac(a2-6)Gal(b1-4)GlcNAc
Procedure, shortened: as §1

[28] = target: Neu5Ac(a2-6)Gal(b1-4)GlcNAc(b1-2)Man(a1-3)[Gal(b1-4)GlcNAc(b1-2)Man(a1-6)]Man(b1-4)GlcNAc(b1-4)GlcNAc
Procedure, shortened: as §1

[29] = target: Neu5Ac(a2-6)Gal(b1-4)GlcNAc(b1-2)Man(a1-3)[GlcNAc(b1-2)Man(a1-6)]Man(b1-4)GlcNAc(b1-4)GlcNAc
Procedure, shortened: as §1

[30] = target: Neu5Ac(a2-6)Gal(b1-4)GlcNAc(b1-2)Man(a1-3)[GlcNAc(b1-2)Man(b1-4)GlcNAc(b1-2)Man(a1-6)]Man(b1-4)GlcNAc(b1-4)GlcNAc
Procedure, shortened: as §1

[31] = target: Neu5Ac(a2-6)Gal(b1-4)GlcNAc(b1-2)Man(a1-3)[Neu5Ac(a2-6)Gal(b1-4)GlcNAc(b1-2)Man(a1-6)]Man(b1-4)GlcNAc(b1-4)GlcNAc
Procedure, shortened: as §1

[32] = target: Neu5Ac(a2-6)Gal(b1-4)GlcNAc(b1-2)Man(a1-6)[Gal(b1-4)GlcNAc(b1-2)Man(a1-3)]Man(b1-4)GlcNAc(b1-4)GlcNAc
Procedure, shortened: as §1

[33] = target: Neu5Ac(a2-6)Gal(b1-4)GlcNAc(b1-2)Man(a1-6)[GlcNAc(b1-2)Man(a1-3)]Man(b1-4)GlcNAc(b1-4)GlcNAc
Procedure, shortened: as §1

[34] = target: Neu5Ac(a2-6)Gal(b1-4)GlcNAc(b1-3)Gal(b1-4)GlcNAc
Procedure, shortened: as §1

[35] = target: Neu5Ac(a2-6)Gal(b1-4)GlcNAc(b1-3)Gal(b1-4)[Fuc(a1-3)]GlcNAc(b1-3)Gal(b1-4)[Fuc(a1-3)]GlcNAc
Procedure, shortened: as §1

[36] = target: Neu5Ac(a2-6)Gal(b1-4)GlcNAc6S
Procedure, shortened: as §1

Neu5Ac(a2-6)GalNAc = target: Neu5Ac(a2-6)GalNAc
Procedure, shortened: as §1

[37] = target: Neu5Ac(a2-6)GalNAc(b1-4)GlcNAc
Procedure, shortened: as §1

Neu5Ac(a2-8)Neu5Ac = target: Neu5Ac(a2-8)Neu5Ac
Procedure, shortened: as §1

[38] = target: Neu5Ac(a2-8)Neu5Ac(a2-3)Gal(b1-4)Glc
Procedure, shortened: as §1

[39] = target: Neu5Ac(a2-8)Neu5Ac(a2-3)[GalNAc(b1-4)]Gal(b1-4)Glc
Procedure, shortened: as §1

[40] = target: Neu5Ac(a2-8)Neu5Ac(a2-8)Neu5Ac
Procedure, shortened: as §1

[41] = target: Neu5Ac(a2-8)Neu5Ac(a2-8)Neu5Ac(a2-3)Gal(b1-4)Glc
Procedure, shortened: as §1

[42] = target: Neu5Ac(a2-8)Neu5Ac(a2-8)Neu5Ac(a2-3)[GalNAc(b1-4)]Gal(b1-4)Glc
Procedure, shortened: as §1

[43] = target: Neu5Ac(a2-8)Neu5Ac(a2-8)Neu5Ac(a2-8)Neu5Ac(a2-3)[GalNAc(b1-4)]Gal(b1-4)Glc
Procedure, shortened: as §1

[44] = target: Neu5Ac(b2-6)Gal(b1-4)GlcNAc
Procedure, shortened: as §1

Neu5Ac(b2-6)GalNAc = target: Neu5Ac(b2-6)GalNAc
Procedure, shortened: as §1

[45] = target: Neu5Ac9Ac(a2-6)Gal(b1-4)GlcNAc
Procedure, shortened: as §1

[46] = target: Neu5Gc(a2-3)Gal(b1-3)GlcNAc
Procedure, shortened: as §1

[47] = target: Neu5Gc(a2-3)Gal(b1-3)[Fuc(a1-4)]GlcNAc
Procedure, shortened: as §1

Neu5Gc(a2-3)Gal(b1-4)Glc = target: Neu5Gc(a2-3)Gal(b1-4)Glc
Procedure, shortened: as §1

[48] = target: Neu5Gc(a2-3)Gal(b1-4)GlcNAc
Procedure, shortened: as §1

[49] = target: Neu5Gc(a2-3)Gal(b1-4)[Fuc(a1-3)]GlcNAc
Procedure, shortened: as §1

[50] = target: Neu5Gc(a2-6)Gal(b1-4)GlcNAc
Procedure, shortened: as §1

Neu5Gc(a2-6)GalNAc = target: Neu5Gc(a2-6)GalNAc
Procedure, shortened: as §1

[51] = target: Neu5Gc(b2-6)Gal(b1-4)GlcNAc
Procedure, shortened: as §1

B1: Surfactant Protein D (Human); Neck + Carbohydrate Recognition Domain (NCRD) (Homo sapiens) (protein)
chain: MLLFLLSALVLLTQPLGYLEAEMKTYSHRTMPSACTLVMCSSVESGLPGRDRDGREGPRGEKGDPGLPGAAGQAGMPGQAGPVGPKGDNGSVGEPGPKGDTGPSGPPGPPGVPGPAGREGALGKQGNIGPQGKPGPKGEAGPKGEVGAPGMQGSAGARGLAGPKGERGVPGERGVPGNTGAAGSAGAMGPQGSPGARGPPGLKGDKGIPGDKGAKGESGLPDVASLRQQVEALQGQVQHLQAAFSQYKKVELFPNGQSVGEKIFKTAQFVKPFTEAQLLCTQAGGQLASPRSAAENAALQQLVVAKNEAAFLSMTDSKTEGKFTYPTGESLVYSNWAPGEPNDDGGSEDCVEIFTNGKWNDRACGEARLVVCEF
[1]
  glycan array binding signal (z-score): -0.174
[2]
  glycan array binding signal (z-score): 0.451
[3]
  glycan array binding signal (z-score): -0.178
[4]
  glycan array binding signal (z-score): -0.171
Neu5Ac(a2-3)Gal(b1-4)Glc
  glycan array binding signal (z-score): -0.17
[5]
  glycan array binding signal (z-score): -0.162
[6]
  glycan array binding signal (z-score): -0.159
[7]
  glycan array binding signal (z-score): -0.177
[8]
  glycan array binding signal (z-score): -0.17
[9]
  glycan array binding signal (z-score): -0.174
[10]
  glycan array binding signal (z-score): -0.147
[11]
  glycan array binding signal (z-score): -0.157
[12]
  glycan array binding signal (z-score): -0.172
[13]
  glycan array binding signal (z-score): -0.176
[14]
  glycan array binding signal (z-score): -0.155
[15]
  glycan array binding signal (z-score): -0.173
[16]
  glycan array binding signal (z-score): -0.173
[17]
  glycan array binding signal (z-score): -0.037
[18]
  glycan array binding signal (z-score): -0.167
[19]
  glycan array binding signal (z-score): -0.015
[20]
  glycan array binding signal (z-score): -0.162
[21]
  glycan array binding signal (z-score): -0.17
[22]
  glycan array binding signal (z-score): -0.173
Neu5Ac(a2-3)GalNAc
  glycan array binding signal (z-score): -0.147
[23]
  glycan array binding signal (z-score): -0.177
[24]
  glycan array binding signal (z-score): -0.176
[25]
  glycan array binding signal (z-score): -0.17
[26]
  glycan array binding signal (z-score): -0.177
Neu5Ac(a2-6)Gal
  glycan array binding signal (z-score): -0.158
Neu5Ac(a2-6)Gal(b1-4)Glc
  glycan array binding signal (z-score): -0.17
[27]
  glycan array binding signal (z-score): -0.162
[28]
  glycan array binding signal (z-score): -0.147
[29]
  glycan array binding signal (z-score): -0.169
[30]
  glycan array binding signal (z-score): -0.173
[31]
  glycan array binding signal (z-score): -0.164
[32]
  glycan array binding signal (z-score): -0.111
[33]
  glycan array binding signal (z-score): -0.173
[34]
  glycan array binding signal (z-score): -0.174
[35]
  glycan array binding signal (z-score): 0.254
[36]
  glycan array binding signal (z-score): -0.175
Neu5Ac(a2-6)GalNAc
  glycan array binding signal (z-score): -0.174
[37]
  glycan array binding signal (z-score): -0.172
Neu5Ac(a2-8)Neu5Ac
  glycan array binding signal (z-score): -0.164
[38]
  glycan array binding signal (z-score): -0.171
[39]
  glycan array binding signal (z-score): -0.141
[40]
  glycan array binding signal (z-score): -0.173
[41]
  glycan array binding signal (z-score): -0.177
[42]
  glycan array binding signal (z-score): -0.161
[43]
  glycan array binding signal (z-score): -0.154
[44]
  glycan array binding signal (z-score): -0.177
Neu5Ac(b2-6)GalNAc
  glycan array binding signal (z-score): -0.166
[45]
  glycan array binding signal (z-score): -0.162
[46]
  glycan array binding signal (z-score): -0.174
[47]
  glycan array binding signal (z-score): -0.149
Neu5Gc(a2-3)Gal(b1-4)Glc
  glycan array binding signal (z-score): -0.132
[48]
  glycan array binding signal (z-score): -0.174
[49]
  glycan array binding signal (z-score): -0.165
[50]
  glycan array binding signal (z-score): -0.173
Neu5Gc(a2-6)GalNAc
  glycan array binding signal (z-score): -0.168
[51]
  glycan array binding signal (z-score): -0.158
